The supplement of paper PMC10369915
The list shows a part of the results. No stated cut-off is given here; in the data, active = 3.2 or more and inactive = the rest. The signal is at background level for most entries.

These binders were tested against SHP2 C-SH2 domain E139D (assay: enrichment score (SH2-bound / input frequency) (ratio); bacterial display of known human phosphotyrosine sites (pTyr-Var adds point mutants) read by sequencing; higher = stronger binding; tyrosines were phosphorylated by kinases first). Settings: peptide library: Human pTyr.
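Further: displayed peptides selected on beads carrying the immobilized SH2 domain, with library peptides lacking any tyrosine serving as negative controls.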

| Binder | enrichment score |
| --- | --- |
| VLYRIRFYFPRWYCS [JAK2_HUMAN_119] | inactive: 0.94 |
| MTDYNPNYCFAGKTS [ALK_HUMAN_1096] | inactive: 1.25 |
| FVSLIDGYARLTADA [JAK2_HUMAN_372_YA] | inactive: 3.16 |
| EYLGTKRYIHRDLAT [JAK2_HUMAN_972] | inactive: 0.937 |
| EALGTKRYIHRDLAT [JAK2_HUMAN_972_YA] | inactive: 0.829 |
| MTDANPNYCFAGKTS [ALK_HUMAN_1096_YA] | inactive: 0.815 |
| SLRLVMEYLPSGCLR [JAK3_HUMAN_904] | inactive: 1.95 |
| GPEPPPVYTNLSSAS [JUNB_HUMAN_182_YA] | inactive: 0.639 |
| VATNLSSYSPASASS [JUNB_HUMAN_188_YA] | inactive: 0.669 |
| AIVHLINYQDDAELA [JUP_HUMAN_133] | inactive: 1 |
| FGMARDIYRASYYRK [ALK_HUMAN_1278] | inactive: 0.495 |
| KHKATEQYYAMKILD [KAPCB_HUMAN_69] | inactive: 2.64 |
| SSAPQEQYGECGEKS [KAT6A_HUMAN_899] | inactive: 1.04 |
| FDAILYYYQSGGRIR [KCNA3_HUMAN_163] | inactive: 1.24 |
| FSEEIRFYQLGEEAM [KCNA3_HUMAN_187] | inactive: 0.747 |
| YWGIDEIYLESCCQA [KCNB1_HUMAN_128] | inactive: 1.34 |
| AWGIDEIYLESCCQA [KCNB1_HUMAN_128_YA] | inactive: 0.762 |
| GKLHAPRYECISAAD [KCND3_HUMAN_108_YA] | inactive: 1.73 |

What follows are binders tested against SHP2 C-SH2 domain wild-type in the same assay as above. Settings: peptide library: Human pTyr.

| Binder | enrichment score |
| --- | --- |
| VLYRIRFYFPRWYCS [JAK2_HUMAN_119] | inactive: 0.842 |
| MTDYNPNYCFAGKTS [ALK_HUMAN_1096] | inactive: 1.16 |
| FVSLIDGYARLTADA [JAK2_HUMAN_372_YA] | active: 8.81 |
| EYLGTKRYIHRDLAT [JAK2_HUMAN_972] | inactive: 0.887 |
| EALGTKRYIHRDLAT [JAK2_HUMAN_972_YA] | inactive: 0.726 |
| MTDANPNYCFAGKTS [ALK_HUMAN_1096_YA] | inactive: 0.748 |
| SLRLVMEYLPSGCLR [JAK3_HUMAN_904] | inactive: 1.42 |
| GPEPPPVYTNLSSAS [JUNB_HUMAN_182_YA] | inactive: 0.519 |
| VATNLSSYSPASASS [JUNB_HUMAN_188_YA] | inactive: 0.671 |
| AIVHLINYQDDAELA [JUP_HUMAN_133] | inactive: 0.669 |
| FGMARDIYRASYYRK [ALK_HUMAN_1278] | inactive: 0.553 |
| KHKATEQYYAMKILD [KAPCB_HUMAN_69] | inactive: 2.68 |
| SSAPQEQYGECGEKS [KAT6A_HUMAN_899] | inactive: 0.79 |
| FDAILYYYQSGGRIR [KCNA3_HUMAN_163] | inactive: 0.762 |
| FSEEIRFYQLGEEAM [KCNA3_HUMAN_187] | inactive: 0.598 |
| YWGIDEIYLESCCQA [KCNB1_HUMAN_128] | inactive: 1.28 |
| AWGIDEIYLESCCQA [KCNB1_HUMAN_128_YA] | inactive: 0.639 |
| GKLHAPRYECISAAD [KCND3_HUMAN_108_YA] | inactive: 1.66 |

Each binder was assayed against SHP2 N-SH2 domain L43F in the same assay as above. Settings: peptide library: Human pTyr.

| Binder | enrichment score |
| --- | --- |
| VLYRIRFYFPRWYCS [JAK2_HUMAN_119] | inactive: 1.01 |
| MTDYNPNYCFAGKTS [ALK_HUMAN_1096] | inactive: 1.37 |
| FVSLIDGYARLTADA [JAK2_HUMAN_372_YA] | inactive: 0.559 |
| EYLGTKRYIHRDLAT [JAK2_HUMAN_972] | inactive: 0.751 |
| EALGTKRYIHRDLAT [JAK2_HUMAN_972_YA] | inactive: 0.773 |
| MTDANPNYCFAGKTS [ALK_HUMAN_1096_YA] | inactive: 0.743 |
| SLRLVMEYLPSGCLR [JAK3_HUMAN_904] | inactive: 1.63 |
| GPEPPPVYTNLSSAS [JUNB_HUMAN_182_YA] | inactive: 0.6 |
| VATNLSSYSPASASS [JUNB_HUMAN_188_YA] | inactive: 0.531 |
| AIVHLINYQDDAELA [JUP_HUMAN_133] | inactive: 0.786 |
| FGMARDIYRASYYRK [ALK_HUMAN_1278] | inactive: 0.541 |
| KHKATEQYYAMKILD [KAPCB_HUMAN_69] | inactive: 2.63 |
| SSAPQEQYGECGEKS [KAT6A_HUMAN_899] | inactive: 0.925 |
| FDAILYYYQSGGRIR [KCNA3_HUMAN_163] | inactive: 1.15 |
| FSEEIRFYQLGEEAM [KCNA3_HUMAN_187] | inactive: 0.732 |
| YWGIDEIYLESCCQA [KCNB1_HUMAN_128] | inactive: 1.23 |
| AWGIDEIYLESCCQA [KCNB1_HUMAN_128_YA] | inactive: 0.755 |
| GKLHAPRYECISAAD [KCND3_HUMAN_108_YA] | inactive: 1.46 |

The binders below were run against SHP2 N-SH2 domain T42A in the same assay as above. Settings: peptide library: Human pTyr.

| Binder | enrichment score |
| --- | --- |
| VLYRIRFYFPRWYCS [JAK2_HUMAN_119] | inactive: 0.827 |
| MTDYNPNYCFAGKTS [ALK_HUMAN_1096] | inactive: 0.953 |
| FVSLIDGYARLTADA [JAK2_HUMAN_372_YA] | inactive: 0.812 |
| EYLGTKRYIHRDLAT [JAK2_HUMAN_972] | inactive: 0.878 |
| EALGTKRYIHRDLAT [JAK2_HUMAN_972_YA] | inactive: 0.843 |
| MTDANPNYCFAGKTS [ALK_HUMAN_1096_YA] | inactive: 0.758 |
| SLRLVMEYLPSGCLR [JAK3_HUMAN_904] | inactive: 1.6 |
| GPEPPPVYTNLSSAS [JUNB_HUMAN_182_YA] | inactive: 0.545 |
| VATNLSSYSPASASS [JUNB_HUMAN_188_YA] | inactive: 0.561 |
| AIVHLINYQDDAELA [JUP_HUMAN_133] | inactive: 0.776 |
| FGMARDIYRASYYRK [ALK_HUMAN_1278] | inactive: 0.678 |
| KHKATEQYYAMKILD [KAPCB_HUMAN_69] | inactive: 2.45 |
| SSAPQEQYGECGEKS [KAT6A_HUMAN_899] | inactive: 0.748 |
| FDAILYYYQSGGRIR [KCNA3_HUMAN_163] | inactive: 0.744 |
| FSEEIRFYQLGEEAM [KCNA3_HUMAN_187] | inactive: 0.683 |
| YWGIDEIYLESCCQA [KCNB1_HUMAN_128] | inactive: 1.25 |
| AWGIDEIYLESCCQA [KCNB1_HUMAN_128_YA] | inactive: 0.733 |
| GKLHAPRYECISAAD [KCND3_HUMAN_108_YA] | inactive: 1.46 |

These binders were tested against SHP2 N-SH2 domain T52S in the same assay as above. Settings: peptide library: Human pTyr.

| Binder | enrichment score |
| --- | --- |
| VLYRIRFYFPRWYCS [JAK2_HUMAN_119] | inactive: 0.988 |
| MTDYNPNYCFAGKTS [ALK_HUMAN_1096] | inactive: 1.26 |
| FVSLIDGYARLTADA [JAK2_HUMAN_372_YA] | inactive: 0.776 |
| EYLGTKRYIHRDLAT [JAK2_HUMAN_972] | inactive: 1.03 |
| EALGTKRYIHRDLAT [JAK2_HUMAN_972_YA] | inactive: 0.993 |
| MTDANPNYCFAGKTS [ALK_HUMAN_1096_YA] | inactive: 0.889 |
| SLRLVMEYLPSGCLR [JAK3_HUMAN_904] | inactive: 1.8 |
| GPEPPPVYTNLSSAS [JUNB_HUMAN_182_YA] | inactive: 0.479 |
| VATNLSSYSPASASS [JUNB_HUMAN_188_YA] | inactive: 0.732 |
| AIVHLINYQDDAELA [JUP_HUMAN_133] | inactive: 0.791 |
| FGMARDIYRASYYRK [ALK_HUMAN_1278] | inactive: 0.615 |
| KHKATEQYYAMKILD [KAPCB_HUMAN_69] | inactive: 2.47 |
| SSAPQEQYGECGEKS [KAT6A_HUMAN_899] | inactive: 0.953 |
| FDAILYYYQSGGRIR [KCNA3_HUMAN_163] | inactive: 0.79 |
| FSEEIRFYQLGEEAM [KCNA3_HUMAN_187] | inactive: 0.745 |
| YWGIDEIYLESCCQA [KCNB1_HUMAN_128] | inactive: 1.07 |
| AWGIDEIYLESCCQA [KCNB1_HUMAN_128_YA] | inactive: 0.778 |
| GKLHAPRYECISAAD [KCND3_HUMAN_108_YA] | inactive: 1.76 |

These binders were tested against SHP2 N-SH2 domain wild-type in the same assay as above. Settings: peptide library: Human pTyr.

| Binder | enrichment score |
| --- | --- |
| VLYRIRFYFPRWYCS [JAK2_HUMAN_119] | inactive: 0.757 |
| MTDYNPNYCFAGKTS [ALK_HUMAN_1096] | inactive: 1.19 |
| FVSLIDGYARLTADA [JAK2_HUMAN_372_YA] | inactive: 0.732 |
| EYLGTKRYIHRDLAT [JAK2_HUMAN_972] | inactive: 1.08 |
| EALGTKRYIHRDLAT [JAK2_HUMAN_972_YA] | inactive: 1.04 |
| MTDANPNYCFAGKTS [ALK_HUMAN_1096_YA] | inactive: 0.831 |
| SLRLVMEYLPSGCLR [JAK3_HUMAN_904] | inactive: 1.83 |
| GPEPPPVYTNLSSAS [JUNB_HUMAN_182_YA] | inactive: 0.693 |
| VATNLSSYSPASASS [JUNB_HUMAN_188_YA] | inactive: 0.649 |
| AIVHLINYQDDAELA [JUP_HUMAN_133] | inactive: 1.31 |
| FGMARDIYRASYYRK [ALK_HUMAN_1278] | inactive: 0.698 |
| KHKATEQYYAMKILD [KAPCB_HUMAN_69] | active: 3.49 |
| SSAPQEQYGECGEKS [KAT6A_HUMAN_899] | inactive: 0.949 |
| FDAILYYYQSGGRIR [KCNA3_HUMAN_163] | inactive: 1.25 |
| FSEEIRFYQLGEEAM [KCNA3_HUMAN_187] | inactive: 0.692 |
| YWGIDEIYLESCCQA [KCNB1_HUMAN_128] | inactive: 1.68 |
| AWGIDEIYLESCCQA [KCNB1_HUMAN_128_YA] | inactive: 0.667 |
| GKLHAPRYECISAAD [KCND3_HUMAN_108_YA] | inactive: 2.24 |
